Measurements reported in the supplement of paper PMC4967469.
The IC50 comes from the fitted curve, where viability falls to half of the control; a fit beyond the top or the lowest dose is shown as a bound at that dose. AUC, from the same fit, is the share of area under the viability curve across the 256-fold dose range; it is 1 without any effect and falls as sensitivity rises. An inferred top dose comes from the curve model; the source does not state it.

What follows are cell lines tested with CCOc1cc2ncc(C#N)c(Nc3ccc(F)c(Cl)c3)c2cc1NC(=O)/C=C/CN(C)C [EKB-569] (assay: Viability of human cancer cell lines after 72 h of drug (GDSC screen)). Details: top dose inferred.
Description: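 Human cancer cell lines in 384-well plates, medium with 10% serum, drug for 72 h over a 256-fold dose range (nine 2-fold or five 4-fold steps up to the top dose). Adherent lines were fixed and stained with the nucleic acid dye Syto60, suspension lines read with resazurin; signal relative to control wells, capped at 0 and 100%. One two-parameter sigmoid per drug and line, fitted in a mixed model over all curves with the slope shared within a line.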

Cell Line | AUC | IC50
TE-5 (oesophagus, adherent, top dose 2.5 µM) | 0.913 | > 2.5 µM
NCI-SNU-16 (stomach, suspension, top dose 2.5 µM) | 0.991 | > 2.5 µM
JAR (urogenital system, adherent, top dose 2.5 µM) | 0.774 | 0.964 µM
LB2518-MEL (melanoma, adherent, top dose 2.5 µM) | 0.986 | > 2.5 µM
SKG-IIIa (cervix, adherent, top dose 2.5 µM) | 0.976 | > 2.5 µM
SNU-398 (liver, adherent, top dose 2.5 µM) | 0.966 | > 2.5 µM
NCI-H1915 (large cell lung carcinoma, adherent, top dose 2.5 µM) | 0.926 | > 2.5 µM
VMRC-MELG (melanoma, adherent, top dose 2.5 µM) | 0.983 | > 2.5 µM
NCI-H522 (lung adenocarcinoma, adherent, top dose 2.5 µM) | 0.967 | > 2.5 µM
Hep 3B2_1-7 (liver, adherent, top dose 2.5 µM) | 0.983 | > 2.5 µM
GRANTA-519 (B-cell lymphoma, suspension, top dose 2.5 µM) | 0.957 | > 2.5 µM
NCI-H2029 (small cell lung carcinoma, adherent, top dose 2.5 µM) | 0.992 | > 2.5 µM
HCC-15 (lung squamous cell carcinoma, adherent, top dose 2.5 µM) | 0.948 | > 2.5 µM
NCI-H2444 (non-small cell lung carcinoma, adherent, top dose 2.5 µM) | 0.988 | > 2.5 µM
PANC-10-05 (pancreas, adherent, top dose 2.5 µM) | 0.808 | 1.77 µM
H9 (lymphoid neoplasm, suspension, top dose 2.5 µM) | 0.943 | > 2.5 µM
NCI-H2122 (lung adenocarcinoma, adherent, top dose 20 µM) | 0.89 | > 20 µM
OAW-42 (ovary, adherent, top dose 2.5 µM) | 0.934 | > 2.5 µM
TE-441-T (rhabdomyosarcoma, adherent, top dose 2.5 µM) | 0.97 | > 2.5 µM
ECC10 (stomach, suspension, top dose 2.5 µM) | 0.829 | 1.65 µM
ES3 (Ewing sarcoma, adherent, top dose 2.5 µM) | 0.717 | 0.665 µM
H2595 (mesothelioma, adherent, top dose 2.5 µM) | 0.967 | > 2.5 µM
KLE (endometrium, adherent, top dose 2.5 µM) | 0.766 | 1.48 µM
JIMT-1 (breast, adherent, top dose 2.5 µM) | 0.894 | > 2.5 µM
SBC-1 (small cell lung carcinoma, suspension, top dose 2.5 µM) | 0.989 | > 2.5 µM
Hs-578-T (breast, adherent, top dose 2.5 µM) | 0.987 | > 2.5 µM
GCIY (stomach, adherent, top dose 2.5 µM) | 0.792 | 1.3 µM

Cell Line | AUC | IC50
UACC-62 (melanoma, adherent, top dose 2.5 µM) | 0.979 | > 2.5 µM
JHH-4 (liver, adherent, top dose 2.5 µM) | 0.987 | > 2.5 µM
ML-2 (acute myeloid leukaemia, suspension, top dose 2.5 µM) | 0.885 | 2.22 µM
D-336MG (glioma, adherent, top dose 2.5 µM) | 0.88 | > 2.5 µM
LB996-RCC (kidney, adherent, top dose 2.5 µM) | 0.958 | > 2.5 µM
COR-L23 (large cell lung carcinoma, adherent, top dose 2.5 µM) | 0.802 | 1.19 µM
NCI-H1838 (lung adenocarcinoma, adherent, top dose 2.5 µM) | 0.977 | > 2.5 µM
TE-8 (oesophagus, adherent, top dose 2.5 µM) | 0.915 | > 2.5 µM
COLO-783 (melanoma, adherent, top dose 2.5 µM) | 0.986 | > 2.5 µM
Hs683 (glioma, adherent, top dose 2.5 µM) | 0.969 | > 2.5 µM
SCC-3 (B-cell lymphoma, suspension, top dose 2.5 µM) | 0.9 | 1.62 µM
VAL (B-cell lymphoma, suspension, top dose 2.5 µM) | 0.793 | 1.15 µM
EMC-BAC-1 (lung adenocarcinoma, adherent, top dose 2.5 µM) | 0.556 | 0.227 µM
CAL-39 (cervix, adherent, top dose 2.5 µM) | 0.949 | > 2.5 µM
DoTc2-4510 (cervix, adherent, top dose 2.5 µM) | 0.784 | 1 µM
Daoy (medulloblastoma, adherent, top dose 2.5 µM) | 0.791 | 1.01 µM
HL-60 (acute myeloid leukaemia, suspension, top dose 2.5 µM) | 0.842 | 1.5 µM
Capan-2 (pancreas, adherent, top dose 2.5 µM) | 0.943 | > 2.5 µM
SK-ES-1 (Ewing sarcoma, semi-adherent, top dose 2.5 µM) | 0.789 | 1.18 µM
GOTO (neuroblastoma, adherent, top dose 2.5 µM) | 0.955 | > 2.5 µM
SU8686 (pancreas, adherent, top dose 2.5 µM) | 0.957 | > 2.5 µM
VMRC-RCZ (kidney, adherent, top dose 2.5 µM) | 0.845 | 2.28 µM
KP-N-YS (neuroblastoma, adherent, top dose 2.5 µM) | 0.838 | 2.07 µM
ATN-1 (T-cell lymphoblastic leukaemia, suspension, top dose 20 µM) | 0.465 | 1.01 µM
GP5d (large intestine, adherent, top dose 2.5 µM) | 0.818 | 1.22 µM
NCI-H1836 (small cell lung carcinoma, suspension, top dose 2.5 µM) | 0.985 | > 2.5 µM
NCI-H841 (small cell lung carcinoma, adherent, top dose 2.5 µM) | 0.956 | > 2.5 µM

Cell Line | AUC | IC50
SJRH30 (rhabdomyosarcoma, adherent, top dose 2.5 µM) | 0.941 | > 2.5 µM
MKN28 (stomach, adherent, top dose 2.5 µM) | 0.921 | > 2.5 µM
SK-LMS-1 (soft tissue, adherent, top dose 2.5 µM) | 0.884 | 2.48 µM
MSTO-211H (mesothelioma, adherent, top dose 2.5 µM) | 0.99 | > 2.5 µM
CAS-1 (glioma, adherent, top dose 2.5 µM) | 0.805 | 1.85 µM
NCI-H2405 (lung adenocarcinoma, adherent, top dose 2.5 µM) | 0.915 | > 2.5 µM
NCI-H720 (lung carcinoid, suspension, top dose 2.5 µM) | 0.992 | > 2.5 µM
BT-474 (breast, adherent, top dose 2.5 µM) | 0.424 | 0.0943 µM
639-V (bladder, adherent, top dose 2.5 µM) | 0.98 | > 2.5 µM
QGP-1 (pancreas, adherent, top dose 2.5 µM) | 0.941 | > 2.5 µM
COLO-668 (small cell lung carcinoma, adherent, top dose 2.5 µM) | 0.981 | > 2.5 µM
BICR31 (head and neck, adherent, top dose 2.5 µM) | 0.843 | 1.8 µM
EW-7 (Ewing sarcoma, semi-adherent, top dose 2.5 µM) | 0.892 | 2.32 µM
NCI-H727 (lung carcinoid, adherent, top dose 2.5 µM) | 0.767 | 1.62 µM
NCI-H510A (small cell lung carcinoma, semi-adherent, top dose 2.5 µM) | 0.99 | > 2.5 µM
COR-L311 (small cell lung carcinoma, suspension, top dose 2.5 µM) | 0.933 | > 2.5 µM
HPAF-II (pancreas, adherent, top dose 2.5 µM) | 0.76 | 1.15 µM
T47D (breast, adherent, top dose 2.5 µM) | 0.704 | 0.805 µM
LC4-1 (lymphoblastic leukaemia, suspension, top dose 2.5 µM) | 0.775 | 1.09 µM
U-2-OS (osteosarcoma, adherent, top dose 2.5 µM) | 0.916 | > 2.5 µM
SISO (cervix, adherent, top dose 2.5 µM) | 0.936 | > 2.5 µM
ACHN (kidney, adherent, top dose 2.5 µM) | 0.808 | 1.52 µM
RPMI-8866 (chronic myeloid leukaemia, suspension, top dose 2.5 µM) | 0.988 | > 2.5 µM
MCF7 (breast, adherent, top dose 2.5 µM) | 0.986 | > 2.5 µM
HCT-15 (large intestine, adherent, top dose 2.5 µM) | 0.883 | > 2.5 µM
